Assay results from publication PMC6919601, “Identification of Plasmodium dipeptidyl aminopeptidase allosteric inhibitors by high throughput screening” (PLoS ONE, 2019).
About 230 (0.21%) of roughly 110,000 compounds showed an effect of 50% or more. This is one part of the list.

target: DPAP1 (Plasmodium falciparum, UniProt Q8IIJ9); experiment: primary screen, percent inhibition; read by cleavage of a fluorogenic dipeptide substrate; higher = more effect of the substance; design: species or system P. falciparum D10 trophozoite lysates; single well
Sequence (Q8IIJ9 whole entry, looked up): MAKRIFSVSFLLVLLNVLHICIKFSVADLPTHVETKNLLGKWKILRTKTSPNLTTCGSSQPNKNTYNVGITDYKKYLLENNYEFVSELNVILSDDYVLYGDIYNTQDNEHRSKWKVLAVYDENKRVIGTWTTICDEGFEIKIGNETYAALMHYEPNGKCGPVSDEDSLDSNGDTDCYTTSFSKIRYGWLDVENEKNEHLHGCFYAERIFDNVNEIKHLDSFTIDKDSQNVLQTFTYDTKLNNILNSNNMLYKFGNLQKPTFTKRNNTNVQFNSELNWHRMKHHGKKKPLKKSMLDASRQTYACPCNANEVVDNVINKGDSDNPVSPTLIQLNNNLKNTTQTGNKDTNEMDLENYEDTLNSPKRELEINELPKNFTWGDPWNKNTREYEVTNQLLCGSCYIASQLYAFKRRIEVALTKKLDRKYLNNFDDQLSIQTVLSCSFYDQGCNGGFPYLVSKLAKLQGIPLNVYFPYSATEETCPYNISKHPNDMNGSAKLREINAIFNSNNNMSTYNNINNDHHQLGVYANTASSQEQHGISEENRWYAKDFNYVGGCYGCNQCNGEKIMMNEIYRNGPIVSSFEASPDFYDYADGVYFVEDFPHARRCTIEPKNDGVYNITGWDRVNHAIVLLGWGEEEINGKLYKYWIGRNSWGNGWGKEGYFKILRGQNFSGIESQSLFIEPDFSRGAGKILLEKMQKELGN
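Note: 30 min substrate incubation versus DMSO and 10 µM JCP410 controls.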

Row | Structure (SMILES) | % Inhibition @ 10 uM [%]
1 | COc1cc(Cc2nnc(C(=O)NCc3ccccn3)o2)cc(OC)c1OC | 6.37
2 | COc1ccc(OC)c(CN2CCN(Cc3ccc(SC)cc3)CC2)c1 | 0.673
3 | O=C(c1cc(-c2ccc(Cl)cc2)n[nH]1)N1CCc2ccccc2C1 | 4.47
4 | Cc1[nH]nc2ccccc12 | 1.68
5 | Cn1c(=O)c2c(ncn2CC(O)CN2CCOCC2)n(C)c1=O (stereo not shown) | -3.04
6 | Cc1cnc(NC(=O)c2ccc(COc3ccc(Cl)cc3Cl)o2)s1 | 1.87
7 | O=C(CCCc1cn(Cc2ccccc2Cl)c2ccccc12)NCCN1CCOCC1 | -5.42
8 | CNC(=O)C(NC(=O)c1ccc([N+](=O)[O-])cc1)C12CC3CC(CC(C3)C1)C2 (stereo not shown) | 2.58
9 | CCOc1ccc(NC(=O)c2sc3nc4c(cc3c2N)CCC4)cc1 | 2.44
10 | O=C(O)c1ccc(NC(=O)C2C3CCC(O3)C2C(=O)O)cc1 (stereo not shown) | -3.34
11 | COc1ccccc1N1CCN(CCN2C(=O)C3CCCN3C2=O)CC1 (stereo not shown) | 3.29
12 | COc1cc2oc(C(=O)OCCN(C)C)c(C)c2cc1Br | -1.76
13 | CCOc1ccc(CC(=O)Nc2ccccc2C(F)(F)F)cc1OCC | -3.34
14 | COc1cc(C2c3c(oc4ccccc4c3=O)C(=O)N2c2nccs2)cc(OC)c1OC (stereo not shown) | 6.01
15 | CCCc1nc2ccccc2c(=O)n1-c1cccc(OC)c1 | -8.23
16 | Cc1ccc2c(CNCCC3=CCCCC3)c(C(=O)O)n(Cc3ccccc3F)c2c1 | -2.74
17 | CN(C)S(=O)(=O)n1cc(/C=C(\NC(=O)c2ccccc2F)C(=O)N2CCCC2)c2ccccc21 | -3.52
18 | COc1cc2c3c(c1OC)C1(C=CC(=O)C=C1)CC3N(C(=O)c1ccccc1)CC2 (stereo not shown) | 2.1
19 | Cc1ccc(C)n1-c1ccc(C(=O)Nc2ccccc2)cc1 | 0.727
20 | Cc1ccc(CNS(=O)(=O)c2ccc3c(c2)OCCO3)cc1 | 0.0504
21 | COc1ccc(-c2nc(SCC(=O)NCC3CCCO3)c(-c3ccc(C)cc3)[nH]2)cc1 (stereo not shown) | 5.06
22 | CN1CCCN(Cc2cc(Cl)ccc2[N+](=O)[O-])CC1 | 2.23
23 | COc1cccc(N(CC(=O)Nc2ccc3c(c2)OCO3)S(=O)(=O)c2ccccc2)c1 | -6.77
24 | CCc1ccc(C2C3=C(CC(C)(C)CC3=O)N=C3C2=C(O)c2ccccc23)cc1 (stereo not shown) | 2.31
25 | COC(=O)C1=C(N)OC2=C(C(=O)CCC2)C1c1cc(Cn2cncn2)cs1 (stereo not shown) | 2.65

Row | Structure (SMILES) | % Inhibition @ 10 uM [%]
26 | Cc1cc(C(=O)N2CCN(c3ccccn3)CC2)c2c(C)nn(-c3cccc(Cl)c3C)c2n1 | -3
27 | O=C(CN1C(=O)c2ccccc2C1=O)N1CCN(Cc2ccc(Cl)cc2)CC1 | -1.46
28 | c1ccc(CCc2nnc3c4c5c(sc4ncn23)CCCC5)cc1 | -0.85
29 | O=S(=O)(Nc1ccccc1Cl)c1ccc(F)cc1 | 0.135
30 | COc1ccc2[nH]c(SCC(O)c3ccc(Br)cc3)nc2c1 (stereo not shown) | 0.19
31 | CC(C)C(NS(=O)(=O)c1cccc2nsnc12)C(=O)NC1CCCCC1 (stereo not shown) | -2.25
32 | C=CCN1C(=O)C(CC(=O)NCC)S/C1=N\c1cccc2ccccc12 (stereo not shown) | 0.512
33 | CN(C)CCCN(C(=O)C1CCCCC1)c1nc2ccc(Br)cc2s1 | 0.745
34 | Cc1cc(C)c(S(=O)(=O)N(C)CC(=O)NCc2ccccn2)c(C)c1 | -0.891
35 | O=C(NCc1ccco1)c1c(O)nnc(-c2ccccc2)c1-c1ccccc1 | 2.04
36 | N#CC1=C(N)Oc2[nH]nc(-c3ccccc3)c2C12C(=O)Nc1ccc(Br)cc12 (stereo not shown) | 0.726
37 | CCOc1cccc2cc(C(=O)/C=C/c3ccc(SC)cc3)c(=O)oc12 | 0.907
38 | O=C(NC1CCCC1)c1c(O)nc2ccccc2c1O | -0.158
39 | COc1ccc2nc(/N=C(\N)NC(=O)Cc3ccccc3)nc(C)c2c1 | -6.78
40 | Cc1ccc(Cl)cc1-n1c(C)cc(/C=C2\C(=N)N3N=C(S(C)(=O)=O)SC3=NC2=O)c1C | 8.11
41 | Cc1cc(-c2[nH]nc3c2C(c2cccnc2)C(C#N)=C(N)O3)c(C)s1 (stereo not shown) | -4.12
42 | COc1cccc2c1Oc1nc(-c3ccc(OC)c(OC)c3OC)nc(S)c1C2 | 5.61
43 | O=C(O)/C=C(\OCCO)C1(O)CCCCC1 | -7.01
44 | CN(CCCNC(=O)c1cc(-c2cccnc2)nc2ccccc12)Cc1ccccc1 | -0.0542
45 | c1ccc(-c2csc3ncnc(N4CCN(c5ccccn5)CC4)c23)cc1 | -3.49
46 | COc1ccccc1NC(=O)c1c(NC(=O)c2ccco2)sc2c1CCC2 | -4.43
47 | c1sc2[n+](c1C13CC4CC(CC(C4)C1)C3)CCS2 | 2.01
48 | Cn1ccnc1SCC(O)c1ccc2c(c1)OCO2 (stereo not shown) | -1.31
49 | O=C(CSc1n[nH]c(-c2ccccc2)n1)Nc1ccccn1 | 4.97
